This is an account of results in PubChem BioAssay (NCI).

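96-well plates; 48 h exposure; 5 concentrations. Endpoints by linear interpolation between flanking doses. Not reached: highest tested concentration assigned. Here, GI50 denotes the concentration required for 50% inhibition of growth. TGI: total growth inhibition.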

This experiment relates to NCI-H322M lung. The experiment is described as follows: NCI anticancer screen, dose series, 48 h.

In the case of `COc1ccc(NC(=O)[C@H](C)NC(=O)OC(C)(C)C)cc1C(=O)Nc1cccc(-c2cc(=O)c3c(OC)c(OC)c(OC)cc3o2)c1`, the GI50 was 2430 nM and the TGI came out at 6980 nM.

As to `CC(C)(C)c1cc(NC(=O)Nc2ccc(-c3cn4c5c(sc4n3)CCc3cn(CCCN4CCCCC4)cc3-5)cc2)no1`, the GI50 was 1800 nM and the TGI was 3340 nM.
